20 sequences from paper PMC5892938 can be followed below.

The other results are listed elsewhere or left out. At the low end of the ranking the order means little.

The assay concerns the target GST-SBP-SLBP (stem-loop binding protein) (UniProt Q14493). The assay can be described thus: targeted RNA Bind-n-Seq.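 Further: DESeq read counts versus GST-SBP nonspecific binding control pulldown.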 Particulars: RBNS binding buffer: 25 mM Tris pH 7.5, 150 mM KCl, 3 mM MgCl2, 0.1% Tween, 0.5 mg/mL BSA, 1 mM DTT; 27 nM protein, 750 pM RNA pool; temperature not stated; high values mean tight binding.
Take “GGUCACGUCUCAAUCAACUCAUUCUCCAGGGAAACCCCUGGCAUAUUCAACAGCUCGCAGUCAAG”: the binding signal (log2 fold change) was -0.042. Turning to “GGUCACGUCUCAAUCAACUCAACAGAGGGGGGGAAAACCCCUUUACCCUCAUCCUCAACAGCUCGCAGUCAAG”, the binding signal (log2 fold change) turned out to be 0.294.

In the case of “GGUCACGUCUCAAUCAACUCAAUGUCAGGAGUUUCCUCCUGUAAAUUCAACAGCUCGCAGUCAAG”, the binding signal (log2 fold change) was 0.0476.

On to “GGUCACGUCUCAAUCAACUCUUUUCCAGGAGUUUUCUCCUGUAUUUUCAACAGCUCGCAGUCAAG”, for which the binding signal (log2 fold change) came to 0.038.

Take “GGUCACGUCUCAAUCAACUCUUCCCCCAGGGAAAUCCCUGGCUAAUUCAACAGCUCGCAGUCAAG”: the binding signal (log2 fold change) came out at 0.0841.

For “GGUCACGUCUCAAUCAACUCUAUUUCCAGGGAAAUCCCUGGCUUACUCAACAGCUCGCAGUCAAG”, the binding signal (log2 fold change) is -0.0226.

Regarding “GGUCACGUCUCAAUCAACUCUCACGAGGGGGGGAAAACCCCUUUACCCUCCAUAUCAACAGCUCGCAGUCAAG”, the binding signal (log2 fold change) was -0.101. Turning to “GGUCACGUCUCAAUCAACUCCACAGAGGGGGGGAAAACCCCUUUACCCUCAGAAUCAACAGCUCGCAGUCAAG”, the binding signal (log2 fold change) is -0.0875.

Consider “GGUCACGUCUCAAUCAACUCAUCCUCAGGAGUUUACUCCUGCAUAGUCAACAGCUCGCAGUCAAG”, for which the binding signal (log2 fold change) came to 0.116. “GGUCACGUCUCAAUCAACUCAUCCCCAGGAGUUUACUCCUGCUAUCUCAACAGCUCGCAGUCAAG”: the binding signal (log2 fold change) is -0.0172. As for “GGUCACGUCUCAAUCAACUCUUCUUCAGGAGUUUCCUCCUGCAUUUUCAACAGCUCGCAGUCAAG”, the binding signal (log2 fold change) is -0.0201. As to “GGUCACGUCUCAAUCAACUCCUACGAGGGGGGGAAAACCCCUUUACCCUCAAACUCAACAGCUCGCAGUCAAG”, the binding signal (log2 fold change) is -0.717. Turning to “GGUCACGUCUCAAUCAACUCAUUUUCCAGGGAAACCCCUGGUUAUCUCAACAGCUCGCAGUCAAG”, the binding signal (log2 fold change) is 0.115. Consider “GGUCACGUCUCAAUCAACUCAUUUUCCAGGGAAAACCCUGGUAUACUCAACAGCUCGCAGUCAAG”, for which the binding signal (log2 fold change) is -0.155. Regarding “GGUCACGUCUCAAUCAACUCAAUCUCCAGGGAAAGCCCUGGUAUAUUCAACAGCUCGCAGUCAAG”, the binding signal (log2 fold change) was 0.185.

Turning to “GGUCACGUCUCAAUCAACUCAUCGUCCAGGGAAAGCCCUGGCUAAUUCAACAGCUCGCAGUCAAG”, the binding signal (log2 fold change) was -0.204. As for “GGUCACGUCUCAAUCAACUCUAUAGAGGGGGGGAAAACCCCUUUACCCUCCAAAUCAACAGCUCGCAGUCAAG”, the binding signal (log2 fold change) is -0.421.

Consider “GGUCACGUCUCAAUCAACUCUCACGAGGGGGGGAAAACCCCUUUACCCUCUCUAUCAACAGCUCGCAGUCAAG”, for which the binding signal (log2 fold change) was -0.146. For “GGUCACGUCUCAAUCAACUCUUUUUCAGGAGUUUACUCCUGUUUUCUCAACAGCUCGCAGUCAAG”, the binding signal (log2 fold change) was -0.077. Consider “GGUCACGUCUCAAUCAACUCUUUAGAGGGGGGGAAAACCCCUUUGCCCUCACUAUCAACAGCUCGCAGUCAAG”, for which the binding signal (log2 fold change) is -0.0364.
